PMC12820563
This is one part of the list. The list includes weakly bound sequences.

Molecular target: T1, MBP-FoxP3dN (UniProt Q99JB6)
T1 sequence: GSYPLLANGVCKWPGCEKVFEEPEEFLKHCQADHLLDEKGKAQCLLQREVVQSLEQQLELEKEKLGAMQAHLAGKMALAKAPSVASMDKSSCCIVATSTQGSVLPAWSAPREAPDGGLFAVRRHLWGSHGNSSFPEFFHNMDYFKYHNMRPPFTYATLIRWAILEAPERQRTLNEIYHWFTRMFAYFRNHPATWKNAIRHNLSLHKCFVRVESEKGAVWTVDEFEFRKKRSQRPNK
Test: PD-seq (MBP pull-down with sequencing)
Conditions: 20 mM Tris-HCl pH 7.5, 100 mM NaCl, 1.5 mM MgCl2, 0.4 uM protein, 0.1 uM dsDNA library, 30 min, room temperature, amylose pull-down; high values mean tight binding; double strand, one strand shown

Sequence	binding signal (RPM ratio (pull-down/input))
GATGATTGTTCTCCCAGCTGATGAATTGGAACGTTCGAGTAAACAAATTTTCCTAATCTTTCTGTTCAAGCGCCATCTAC	0.31
GATGATTGTTCTCCCAGCTGATGAATTCATAGTATCGAGTAAACAAATTTTCCTAATCTTTCTGTTCAAGCGCCATCTAC	0.783
GATGATTGTTCTCCCAGCTGATGAATTCTGGTGGTCGAGTAAACAAATTTTCCTAATCTTTCTGTTCAAGCGCCATCTAC	0.43
GATGATTGTTCTCCCAGCTGATGAATTACACAAGTCGAGTAAACAAATTTTCCTAATCTTTCTGTTCAAGCGCCATCTAC	0.533
GATGATTGTTCTCCCAGCTGATGAATTCCTCTTCTCGAGTAAACAAATTTTCCTAATCTTTCTGTTCAAGCGCCATCTAC	0.253
GATGATTGTTCTCCCAGCTGATGAATTAGATCAGTCGAGTAAACAAATTTTCCTAATCTTTCTGTTCAAGCGCCATCTAC	0.286
GATGATTGTTCTCCCAGCTGATGAATTCGGCTGATCGAGTAAACAAATTTTCCTAATCTTTCTGTTCAAGCGCCATCTAC	0.447
GATGATTGTTCTCCCAGCTGATGAATTCTGAAGATCGAGTAAACAAATTTTCCTAATCTTTCTGTTCAAGCGCCATCTAC	0.204
GATGATTGTTCTCCCAGCTGATGAATTCTGTAGCTCGAGTAAACAAATTTTCCTAATCTTTCTGTTCAAGCGCCATCTAC	1.62
GATGATTGTTCTCCCAGCTGATGAATTGGCCCAGTCGAGTAAACAAATTTTCCTAATCTTTCTGTTCAAGCGCCATCTAC	0.22
GATGATTGTTCTCCCAGCTGATGAATTCATTGCGTCGAGTAAACAAATTTTCCTAATCTTTCTGTTCAAGCGCCATCTAC	1.03
GATGATTGTTCTCCCAGCTGATGAATTTGGAGATTCGAGTAAACAAATTTTCCTAATCTTTCTGTTCAAGCGCCATCTAC	0.391
GATGATTGTTCTCCCAGCTGATGAATTGCTTTGGTCGAGTAAACAAATTTTCCTAATCTTTCTGTTCAAGCGCCATCTAC	1.08
GATGATTGTTCTCCCAGCTGATGAATTTTTAGACTCGAGTAAACAAATTTTCCTAATCTTTCTGTTCAAGCGCCATCTAC	0.25
GATGATTGTTCTCCCAGCTGATGAATTTGTGCAGTCGAGTAAACAAATTTTCCTAATCTTTCTGTTCAAGCGCCATCTAC	1.42
GATGATTGTTCTCCCAGCTGATGAATTTCCGGTATCGAGTAAACAAATTTTCCTAATCTTTCTGTTCAAGCGCCATCTAC	0.44
GATGATTGTTCTCCCAGCTGATGAATTGCCGGGTTCGAGTAAACAAATTTTCCTAATCTTTCTGTTCAAGCGCCATCTAC	0.504
GATGATTGTTCTCCCAGCTGATGAATTCTATCTCTCGAGTAAACAAATTTTCCTAATCTTTCTGTTCAAGCGCCATCTAC	0.512
GATGATTGTTCTCCCAGCTGATGAATTGTTTTGGTCGAGTAAACAAATTTTCCTAATCTTTCTGTTCAAGCGCCATCTAC	3.65
GATGATTGTTCTCCCAGCTGATGAATTAGTAGAGTCGAGTAAACAAATTTTCCTAATCTTTCTGTTCAAGCGCCATCTAC	0.5
GATGATTGTTCTCCCAGCTGATGAATTAGAATATTCGAGTAAACAAATTTTCCTAATCTTTCTGTTCAAGCGCCATCTAC	0.473

Sequence	binding signal (RPM ratio (pull-down/input))
GATGATTGTTCTCCCAGCTGATGAATTATCGAATTCGAGTAAACAAATTTTCCTAATCTTTCTGTTCAAGCGCCATCTAC	0.746
GATGATTGTTCTCCCAGCTGATGAATTCGCCTTCTCGAGTAAACAAATTTTCCTAATCTTTCTGTTCAAGCGCCATCTAC	1.49
GATGATTGTTCTCCCAGCTGATGAATTGTAAATTTCGAGTAAACAAATTTTCCTAATCTTTCTGTTCAAGCGCCATCTAC	0.529
GATGATTGTTCTCCCAGCTGATGAATTAACATGATCGAGTAAACAAATTTTCCTAATCTTTCTGTTCAAGCGCCATCTAC	0.33
GATGATTGTTCTCCCAGCTGATGAATTTTCCACGTCGAGTAAACAAATTTTCCTAATCTTTCTGTTCAAGCGCCATCTAC	0.233
GATGATTGTTCTCCCAGCTGATGAATTAGTGAAGTCGAGTAAACAAATTTTCCTAATCTTTCTGTTCAAGCGCCATCTAC	0.331
GATGATTGTTCTCCCAGCTGATGAATTTTGCATATCGAGTAAACAAATTTTCCTAATCTTTCTGTTCAAGCGCCATCTAC	4.31
GATGATTGTTCTCCCAGCTGATGAATTCCTGAATTCGAGTAAACAAATTTTCCTAATCTTTCTGTTCAAGCGCCATCTAC	0.481
GATGATTGTTCTCCCAGCTGATGAATTGCGGTCGTCGAGTAAACAAATTTTCCTAATCTTTCTGTTCAAGCGCCATCTAC	0.848
GATGATTGTTCTCCCAGCTGATGAATTTTCCACTTCGAGTAAACAAATTTTCCTAATCTTTCTGTTCAAGCGCCATCTAC	0.262
GATGATTGTTCTCCCAGCTGATGAATTGTTTGATTCGAGTAAACAAATTTTCCTAATCTTTCTGTTCAAGCGCCATCTAC	2.06
GATGATTGTTCTCCCAGCTGATGAATTAATTCCTTCGAGTAAACAAATTTTCCTAATCTTTCTGTTCAAGCGCCATCTAC	0.32
GATGATTGTTCTCCCAGCTGATGAATTACAGGGGTCGAGTAAACAAATTTTCCTAATCTTTCTGTTCAAGCGCCATCTAC	0.438
GATGATTGTTCTCCCAGCTGATGAATTACGACCTTCGAGTAAACAAATTTTCCTAATCTTTCTGTTCAAGCGCCATCTAC	0.433
GATGATTGTTCTCCCAGCTGATGAATTGAACGGATCGAGTAAACAAATTTTCCTAATCTTTCTGTTCAAGCGCCATCTAC	0.215
GATGATTGTTCTCCCAGCTGATGAATTACACTAATCGAGTAAACAAATTTTCCTAATCTTTCTGTTCAAGCGCCATCTAC	0.496
GATGATTGTTCTCCCAGCTGATGAATTATCATAATCGAGTAAACAAATTTTCCTAATCTTTCTGTTCAAGCGCCATCTAC	0.491
GATGATTGTTCTCCCAGCTGATGAATTACTTCTCTCGAGTAAACAAATTTTCCTAATCTTTCTGTTCAAGCGCCATCTAC	0.235
GATGATTGTTCTCCCAGCTGATGAATTACGCTCGTCGAGTAAACAAATTTTCCTAATCTTTCTGTTCAAGCGCCATCTAC	0.801
GATGATTGTTCTCCCAGCTGATGAATTCTATTCCTCGAGTAAACAAATTTTCCTAATCTTTCTGTTCAAGCGCCATCTAC	0.571
GATGATTGTTCTCCCAGCTGATGAATTCACTCGGTCGAGTAAACAAATTTTCCTAATCTTTCTGTTCAAGCGCCATCTAC	0.251

Sequence	binding signal (RPM ratio (pull-down/input))
GATGATTGTTCTCCCAGCTGATGAATTATTTCCGTCGAGTAAACAAATTTTCCTAATCTTTCTGTTCAAGCGCCATCTAC	0.296
GATGATTGTTCTCCCAGCTGATGAATTCCGTCCTTCGAGTAAACAAATTTTCCTAATCTTTCTGTTCAAGCGCCATCTAC	0.472
GATGATTGTTCTCCCAGCTGATGAATTTTGGTTGTCGAGTAAACAAATTTTCCTAATCTTTCTGTTCAAGCGCCATCTAC	2.04
GATGATTGTTCTCCCAGCTGATGAATTAAACTGTTCGAGTAAACAAATTTTCCTAATCTTTCTGTTCAAGCGCCATCTAC	0.398
GATGATTGTTCTCCCAGCTGATGAATTGGTTAAATCGAGTAAACAAATTTTCCTAATCTTTCTGTTCAAGCGCCATCTAC	0.261
GATGATTGTTCTCCCAGCTGATGAATTGTTGTGCTCGAGTAAACAAATTTTCCTAATCTTTCTGTTCAAGCGCCATCTAC	5.43
GATGATTGTTCTCCCAGCTGATGAATTTGTAAACTCGAGTAAACAAATTTTCCTAATCTTTCTGTTCAAGCGCCATCTAC	2
GATGATTGTTCTCCCAGCTGATGAATTCTCTGCATCGAGTAAACAAATTTTCCTAATCTTTCTGTTCAAGCGCCATCTAC	0.793
GATGATTGTTCTCCCAGCTGATGAATTTTACTCTTCGAGTAAACAAATTTTCCTAATCTTTCTGTTCAAGCGCCATCTAC	0.271
GATGATTGTTCTCCCAGCTGATGAATTATCGCAGTCGAGTAAACAAATTTTCCTAATCTTTCTGTTCAAGCGCCATCTAC	0.564
GATGATTGTTCTCCCAGCTGATGAATTCATTCTTTCGAGTAAACAAATTTTCCTAATCTTTCTGTTCAAGCGCCATCTAC	0.262
GATGATTGTTCTCCCAGCTGATGAATTTGATACGTCGAGTAAACAAATTTTCCTAATCTTTCTGTTCAAGCGCCATCTAC	1.1
GATGATTGTTCTCCCAGCTGATGAATTCTCACGGTCGAGTAAACAAATTTTCCTAATCTTTCTGTTCAAGCGCCATCTAC	0.204
GATGATTGTTCTCCCAGCTGATGAATTCACGTCATCGAGTAAACAAATTTTCCTAATCTTTCTGTTCAAGCGCCATCTAC	0.59
GATGATTGTTCTCCCAGCTGATGAATTCTGAGACTCGAGTAAACAAATTTTCCTAATCTTTCTGTTCAAGCGCCATCTAC	0.704
GATGATTGTTCTCCCAGCTGATGAATTGAGCTTTTCGAGTAAACAAATTTTCCTAATCTTTCTGTTCAAGCGCCATCTAC	2.47
GATGATTGTTCTCCCAGCTGATGAATTCCTCCAGTCGAGTAAACAAATTTTCCTAATCTTTCTGTTCAAGCGCCATCTAC	0.166
GATGATTGTTCTCCCAGCTGATGAATTTTTCGCTTCGAGTAAACAAATTTTCCTAATCTTTCTGTTCAAGCGCCATCTAC	0.272
GATGATTGTTCTCCCAGCTGATGAATTGAGAATCTCGAGTAAACAAATTTTCCTAATCTTTCTGTTCAAGCGCCATCTAC	1.49
GATGATTGTTCTCCCAGCTGATGAATTTTGAAACTCGAGTAAACAAATTTTCCTAATCTTTCTGTTCAAGCGCCATCTAC	0.974
GATGATTGTTCTCCCAGCTGATGAATTGGAACAGTCGAGTAAACAAATTTTCCTAATCTTTCTGTTCAAGCGCCATCTAC	0.229
